# From PubChem BioAssay AID1347073 (National Center for Advancing Translational Sciences (NCATS), 2019)
# Screen size: about 45,000 compounds; about 200 (0.44%) were called active. Roughly 7% stayed inconclusive and do not appear here. Calls come from the whole dose curve; as a rule, active = well fitted activation curve with a large enough effect; inconclusive = small, poorly fitted or top-dose-only effect; inactive = no such curve, though single readings can be large or run the other way. The list shows a part of the results.
# Test: qHTS of TDP-43 Inhibitors: NCGC Sytravon Library Screen; note: nearly all actives have a fitted effect of over 55% in size; for growth rescue (activation): 0% is about no effect
# Conditions: yeast TDP-43 toxicity rescue, BacTiter-Glo growth, 24 h; series mostly up to 46.1 µM; growth rescue (activation): at the top concentration
# Method in brief: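 TDP-43-expressing yeast, pregrown in raffinose, seeded at OD600 0.02 in galactose medium with compound for 24 hr at 30 deg C. Growth read by BacTiter-Glo luminescence, so rescue of toxicity appears as activation.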
# Potency is the fitted concentration of half-maximal effect.
SMILES,growth rescue (activation),Potency
CC1CCCCN1C(=O)CSc1nnc(-c2ccco2)n1C (centres undefined),inactive: 1.93%,
Cc1onc(-c2ccccc2)c1C(=O)N1CCCC(C)(C(=O)NS(=O)(=O)C2CC2)C1 (centres undefined),inactive: -8.86%,
Cn1c(-c2sc3cc(C(F)(F)F)cnc3c2-c2cccs2)n[nH]c1=S,inactive: 10.4%,
CCSc1nnc(NC(=O)CCNS(=O)(=O)c2ccccc2F)s1,inactive: 8.81%,
Cc1ccc(F)cc1NC(=O)/C=C/c1ccc(S(=O)(=O)N2CCOCC2)cc1,inactive: 9.57%,
CCCSc1nc(=S)n(Cc2ccccc2)c(C)c1C(C)=O,inactive: 15.6%,
CCC(=O)N1CCCC1(C)C(=O)Nc1cccc(Oc2ccccc2)c1 (centres undefined),inactive: 11%,
CCC1=NN(C(=O)c2cccnc2)C(O)(C(F)(F)F)C1 (centres undefined),inactive: 5.82%,
Cc1ccc(C)c(N(CC(=O)N2CCCC2)S(C)(=O)=O)c1,inactive: 5.01%,
CC1=Nc2cc(C(=O)NCCCOC(C)C)ccc2Sc2ccc(C)cc21,inactive: 20.2%,
Cc1ccc(OCC(=O)Nc2ccc(S(=O)(=O)N3CCOCC3)cc2)c(Br)c1,inactive: -2.19%,
NS(=O)(=O)c1ccc(NC(=O)COC(=O)CCc2ccccc2)cc1,inactive: 29.7%,
CCCSc1nnc(NC(=O)Nc2ccc(C)cc2)s1,inactive: 16.1%,
O=C(Nc1ccc(OCC(=O)N2CCOCC2)cc1)c1cc(F)c(F)cc1Cl,inactive: 9.77%,
O=C(O)c1nn(CCOc2cccc(Br)c2)c(=O)c2ccccc12,,active: 17.8 µM
CCOC(=O)N1CCN(C(=O)C2CCCN(S(=O)(=O)c3ccc(F)cc3)C2)CC1 (centres undefined),inactive: -15.9%,
COc1cc(NC(=O)Cn2cnc3sc(C)c(S(=O)(=O)N4CCOCC4)c3c2=O)cc(OC)c1OC,inactive: -16.9%,
CCC1C(=O)N=C(SCC(=O)Nc2ccc(C)cc2)N(c2ccccc2)C1=O (centres undefined),inactive: 9.5%,
O=C(COC(=O)C1CCN(S(=O)(=O)c2ccc3c(c2)OCCO3)CC1)Nc1cccc2ccccc12,inactive: -6%,
O=C(NCCSC1CCCCC1)c1ccccc1,inactive: 29.2%,
CC(Oc1ccc(Cl)cc1C(N)=O)C(=O)N1CCc2ccccc21 (centres undefined),inactive: 11.4%,
O=[N+]([O-])c1cccc(C(=S)N2CCN(c3ccc(F)cc3)CC2)c1,inactive: 8.46%,
O=C(/C=C/c1ccc(F)cc1)NC(=S)Nc1ccccc1O,inactive: -1.72%,

SMILES,growth rescue (activation),Potency
CCN1CCN(C(=O)c2ccccc2Nc2ccc(SC(F)F)cc2)CC1,inactive: 1.16%,
CC1(Cc2cc(Cl)ccc2C(F)(F)F)C(=O)Nc2cc(C(F)(F)F)ccc21 (centres undefined),inactive: -4.32%,
O=C(NCC1CCCCC1)c1csc([C@@H]2O[C@H](CO)[C@H](O)[C@H](O)[C@H]2O)n1,inactive: 7.61%,
COc1ccc(C(=O)c2cn[nH]c2-c2ccc(C)cc2O)cc1,inactive: 3.28%,
Cc1ccccc1N1CC(C(=O)N2CCc3ccccc32)CC1=O (centres undefined),inactive: 25.4%,
CCCCc1c(O)nc(SCC(=O)N2CCOCC2)n(-c2ccc(OC)cc2)c1=O,inactive: 5.04%,
CCOC(=O)CN(C(=O)CSc1nnnn1C)c1ccccc1,inactive: -3.26%,
CC(C)(C)n1ncc2c(=O)n(CC(=O)NC3CCCCC3)cnc21,inactive: 3.67%,
COC(=O)C[n+]1cccc2ccccc21,inactive: -40.1%,
O=C(NC(Cc1c[nH]c2ccccc12)C(=O)O)/C(=C\c1ccccc1)NC(=O)c1ccccc1 (centres undefined),inactive: 0.437%,
Cc1c(NC(=O)COC(=O)C2(c3ccccc3F)CCCC2)c(=O)n(-c2ccccc2)n1C,inactive: 3.53%,
Cc1ccc(N2CC(C(=O)Nc3cccnc3)CC2=O)cc1Cl (centres undefined),inactive: 3.96%,
O=C(O)CN=C1CC(c2ccccc2)CC(=O)/C1=C(/O)CCCN1C(=O)c2ccccc2C1=O (centres undefined),inactive: -5.21%,
NS(=O)(=O)c1ccc(CNC(=O)C2CCCN2C(=O)c2cccs2)cc1 (centres undefined),inactive: 9.58%,
O=C(Nc1nccs1)c1ncc(Cl)c(Cl)c1Cl,inactive: 23.8%,
O=C(OCC(=O)N1CCCC1)c1ccc(OC(F)(F)F)cc1,inactive: 3.54%,
COc1ccc(-c2nnc(SCC(=O)N3CCCc4ccccc43)o2)cc1OC,inactive: 15.3%,
O=C(O)c1ccc(NC(=O)c2cn(-c3ccccc3)nc2-c2ccc(Br)cc2)cc1,inactive: 5.71%,
Cc1ccc2nc(-c3ccc(N)cc3)sc2c1,inactive: -2.49%,
CCCCOC(=O)c1ccc(NC(=O)c2cnc3n(c2=O)CCS3)cc1,inactive: 28.2%,
O=C(NCc1ccc2c(c1)OCO2)C1CCCN1S(=O)(=O)c1ccc(F)cc1 (centres undefined),inactive: 30%,
O=[N+]([O-])c1ccc(-c2cn(-c3ccccc3F)c(=S)[nH]2)cc1,inactive: 7.55%,
C=CCn1c(SCC(=O)c2c(N)n(C)c(=O)n(C)c2=O)nnc1-c1ccccc1F,inactive: -2.62%,

SMILES,growth rescue (activation),Potency
Cc1cc(NS(=O)(=O)c2ccc(NC(=O)/C=C/c3ccco3)cc2)nc(C)n1,inactive: 6.25%,
O=C(COC(=O)CCC(=O)c1ccc(Cl)cc1)NC1CC1,inactive: -0.766%,
COc1cc(NC(=O)C2=C(C)OCCS2)c(Cl)cc1C(=O)NCCN(C)C,inactive: -14%,
CC1CCOC2(O1)C(=O)Nc1ccccc12 (centres undefined),inactive: 13.8%,
O=C(c1cc(C2CC2)on1)N1CCCC(N2CCN(c3cccc(C(F)(F)F)c3)CC2)C1 (centres undefined),inactive: -9.37%,
O=C(NC(=S)NCc1cccnc1)c1cccc2ccccc12,inactive: 6.48%,
Cc1noc(C)c1COC(=O)c1ccc(F)c(S(=O)(=O)N2CCCCC2)c1,inactive: 10.9%,
Cc1ccccc1C(=O)NC1CCN(CC(=O)N2CCCCC2C)CC1 (centres undefined),inactive: 20.6%,
Cn1c(=S)n(C)c2ccccc21,inactive: 10.6%,
CC(C)c1ccccc1NC(=O)CC1(CC(=O)O)CCCC1,inactive: -9.89%,
CCOc1ccc(C(=O)Nc2ccc(N3CCCC3)cc2)cc1,inactive: -29.7%,
CC(C)c1ccccc1NC(=O)COC(=O)Cc1cccc(C(F)(F)F)c1,inactive: 7.26%,
O=[N+]([O-])c1ccc(NCc2ccncc2)cc1,inactive: 1.97%,
COCCNc1nc(Oc2ccccc2)c2sccc2n1,inactive: 25.3%,
O=C(CNC(=O)c1ccccc1Cl)NCCc1cccs1,inactive: 3.14%,
Cc1sc2ncnc(SCc3ccco3)c2c1C,inactive: 21.5%,
CCOC(=O)CSc1nc(-c2ccccn2)ncc1OC,inactive: 4.66%,
CC1CCCN(c2nc(NCc3ccco3)nc(N)c2[N+](=O)[O-])C1 (centres undefined),inactive: 32.1%,
O=C(NCCCN1CCCC1)c1cc2c(Cl)nc3ccccc3c2s1,inactive: -2.65%,
COc1cc(NC(=O)c2cc(-c3ccco3)on2)cc(OC)c1OC,inactive: -4.17%,
c1ccc(Cn2nc(-c3ccccc3)nc2-c2ccccc2)cc1,inactive: 20.1%,
O=C(COC(=O)c1ccc(F)cc1F)Nc1ccc2[nH]c(=O)[nH]c2c1,inactive: 1.3%,
NS(=O)(=O)c1ccc(NC(=O)COC(=O)C2(c3ccc(F)cc3)CCCC2)cc1,inactive: 10.6%,
